# Reference: the supplement of paper PMC10037445
# ± gives the standard deviation of the averaged measurements. The full ranking holds about 2,900 compounds; the median of “NF-kB SEAP reporter activity, fold change vs agonist alone” is about 0.99, and the highest 2% start at about 2.6. Some of the results follow.
# Key:
# [1] = system: RAW-Dual; test: NF-kB SEAP reporter activity, fold change vs agonist alone; cytotoxicity flag (confluency mask): not cytotoxic; higher = enhanced NF-kB activity
# How it was run: (§1)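 RAW-Dual macrophages (50,000 cells/well in DMEM, 384-well plates) received 50 nL of library stock by pin tool, then a PRR agonist 1 h later, and were kept at 37 °C, 5% CO2. After 20 hours, supernatant was read for IRF by QuantiLuc luminescence and for NF-κB by QuantiBlue absorbance at 620 nm. Reporter activity is fold change over agonist-alone wells. Cytotoxic wells had IncuCyte confluency below 70% of agonist controls in both mask sets.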
# [2] = system: RAW-Dual; test: NF-kB SEAP reporter activity, fold change vs agonist alone; higher = enhanced NF-kB activity; conditions: library stock concentration (final ~1000-fold dilution): 10 mM
# How it was run: as §1
# [3] = system: RAW-Dual; test: NF-kB SEAP reporter activity, fold change vs agonist alone; cytotoxicity flag (confluency mask): cytotoxic (confluency <70% of control); higher = enhanced NF-kB activity
# How it was run: as §1
# [4] = agonist: ODN 1826 (TLR9) 0.5 ug/mL
# [5] = agonist: Pam2CSK4 (TLR2/6) 0.1 ug/mL
# [6] = agonist: Pam3CSK4 (TLR2/1) 0.1 ug/mL
# [7] = cytotoxicity flag (confluency mask): not cytotoxic, agonist: Imiquimod (TLR7) […]
# [8] = cytotoxicity flag (confluency mask): not cytotoxic, agonist: MPLA (TLR4) […]
# [9] = cytotoxicity flag (confluency mask): cytotoxic (confluency <70% of control), agonist: Imiquimod (TLR7) […]
# [10] = cytotoxicity flag (confluency mask): cytotoxic (confluency <70% of control), agonist: MPLA (TLR4) […]
smiles,measurement,setting,value
NC1CONC1=O (stereo unspecified) (library stock concentration (final ~1000-fold dilution): 10 mM),NF-kB SEAP reporter activity,[1]; agonist: LPS (TLR4) 0.1 ug/mL,1.64
same,NF-kB SEAP reporter activity,[1]; [4],1.13
same,NF-kB SEAP reporter activity,[1]; [5],1.33
same,NF-kB SEAP reporter activity,[1]; [6],1.31
NC1CONC1=O (stereo unspecified),NF-kB SEAP reporter activity,[2]; [7],0.947
same,NF-kB SEAP reporter activity,[2]; [8],1.19
Cc1cc(Nc2nc(NC(C)c3ccc(F)cc3)c(C#N)cc2F)n[nH]1 (stereo unspecified) (library stock concentration (final ~1000-fold dilution): 10 mM),NF-kB SEAP reporter activity,[1]; agonist: LPS (TLR4) 0.1 ug/mL,1.87
same,NF-kB SEAP reporter activity,[1]; [4],0.965
same,NF-kB SEAP reporter activity,[1]; [5],1.44
same,NF-kB SEAP reporter activity,[1]; [6],0.993
Cc1cc(Nc2nc(NC(C)c3ccc(F)cc3)c(C#N)cc2F)n[nH]1 (stereo unspecified),NF-kB SEAP reporter activity,[2]; [7],1
same,NF-kB SEAP reporter activity,[2]; [8],0.984
Nc1ccc(-c2cccc(C(=O)Nc3cnc4nc(N5CCOCC5)oc4c3)n2)cn1,NF-kB SEAP reporter activity,[2]; [7],1.04
same,NF-kB SEAP reporter activity,[2]; [8],1.08
Nc1ccc(-c2cccc(C(=O)Nc3cnc4nc(N5CCOCC5)oc4c3)n2)cn1 (library stock concentration (final ~1000-fold dilution): 10 mM),NF-kB SEAP reporter activity,[1]; agonist: LPS (TLR4) 0.1 ug/mL,1.43
same,NF-kB SEAP reporter activity,[1]; [4],1.01
same,NF-kB SEAP reporter activity,[1]; [5],0.911
same,NF-kB SEAP reporter activity,[1]; [6],1.33
O=[N+]([O-])c1ccc(Nc2ccccc2-c2ccccc2)c2nonc12 (library stock concentration (final ~1000-fold dilution): 10 mM),NF-kB SEAP reporter activity,[1]; agonist: LPS (TLR4) 0.1 ug/mL,2.02
same,NF-kB SEAP reporter activity,[1]; [4],1.02
same,NF-kB SEAP reporter activity,[1]; [5],0.555
same,NF-kB SEAP reporter activity,[1]; [6],0.754
O=[N+]([O-])c1ccc(Nc2ccccc2-c2ccccc2)c2nonc12,NF-kB SEAP reporter activity,[2]; [7],0.973
same,NF-kB SEAP reporter activity,[2]; [8],1.33
C[N+](C)(C)CC(O)CC(=O)O (stereo unspecified) (library stock concentration (final ~1000-fold dilution): 10 mM),NF-kB SEAP reporter activity,[1]; agonist: LPS (TLR4) 0.1 ug/mL,1.22
same,NF-kB SEAP reporter activity,[1]; [4],1.04
same,NF-kB SEAP reporter activity,[1]; [5],1.09
same,NF-kB SEAP reporter activity,[1]; [6],1.04
C[N+](C)(C)CC(O)CC(=O)O (stereo unspecified),NF-kB SEAP reporter activity,[2]; [7],0.865
same,NF-kB SEAP reporter activity,[2]; [8],0.993
COc1nc2ccc(Br)cc2cc1C(c1ccccc1)C(O)(CCN(C)C)c1cccc2ccccc12.O=C(O)/C=C/C(=O)O (stereo unspecified) (library stock concentration (final ~1000-fold dilution): 10 mM),NF-kB SEAP reporter activity,[1]; agonist: LPS (TLR4) 0.1 ug/mL,0.558
same,NF-kB SEAP reporter activity,[1]; [4],0.739
same,NF-kB SEAP reporter activity,[1]; [5],0.383
same,NF-kB SEAP reporter activity,[1]; [6],0.32
COc1nc2ccc(Br)cc2cc1C(c1ccccc1)C(O)(CCN(C)C)c1cccc2ccccc12.O=C(O)/C=C/C(=O)O (stereo unspecified),NF-kB SEAP reporter activity,[2]; [8],0.907
Cl.NCCOCCOCCNC(=O)Cc1ccc(Nc2nc(NCc3ccc(F)cc3)nc(NCC3CCCCC3)n2)cc1,NF-kB SEAP reporter activity,[2]; [9],1.05
same,NF-kB SEAP reporter activity,[2]; [10],1.59
Cl.NCCOCCOCCNC(=O)Cc1ccc(Nc2nc(NCc3ccc(F)cc3)nc(NCC3CCCCC3)n2)cc1 (library stock concentration (final ~1000-fold dilution): 10 mM),NF-kB SEAP reporter activity,[3]; agonist: LPS (TLR4) 0.1 ug/mL,0.643
same,NF-kB SEAP reporter activity,[3]; [4],0.852
same,NF-kB SEAP reporter activity,[3]; [5],0.738
same,NF-kB SEAP reporter activity,[3]; [6],0.911
OCCn1cc(-c2cnc3nnn(Cc4ccc5ncccc5c4)c3n2)cn1 (library stock concentration (final ~1000-fold dilution): 10 mM),NF-kB SEAP reporter activity,[1]; agonist: LPS (TLR4) 0.1 ug/mL,1.01
same,NF-kB SEAP reporter activity,[1]; [4],1.07
same,NF-kB SEAP reporter activity,[1]; [5],1.09
same,NF-kB SEAP reporter activity,[1]; [6],1.06
OCCn1cc(-c2cnc3nnn(Cc4ccc5ncccc5c4)c3n2)cn1,NF-kB SEAP reporter activity,[2]; [7],0.952
same,NF-kB SEAP reporter activity,[2]; [8],0.983
COC(=O)NC(C(=O)N1CCCC1c1ncc(-c2ccc(-c3ccc(-c4cnc(C5CCCN5C(=O)C(NC(=O)OC)C(C)C)[nH]4)cc3)cc2)[nH]1)C(C)C (stereo unspecified),NF-kB SEAP reporter activity,[2]; [7],1.24
same,NF-kB SEAP reporter activity,[2]; [8],1.31
COC(=O)NC(C(=O)N1CCCC1c1ncc(-c2ccc(-c3ccc(-c4cnc(C5CCCN5C(=O)C(NC(=O)OC)C(C)C)[nH]4)cc3)cc2)[nH]1)C(C)C (stereo unspecified) (library stock concentration (final ~1000-fold dilution): 10 mM),NF-kB SEAP reporter activity,[1]; agonist: LPS (TLR4) 0.1 ug/mL,1.88
same,NF-kB SEAP reporter activity,[1]; [4],0.935
same,NF-kB SEAP reporter activity,[1]; [5],0.867
same,NF-kB SEAP reporter activity,[1]; [6],0.8
Cc1nc2ccc(CN(C)c3ccc(C(=O)NC(CCC(=O)O)C(=O)O)s3)cc2c(=O)[nH]1 (stereo unspecified),NF-kB SEAP reporter activity,[2]; [7],1.78
same,NF-kB SEAP reporter activity,[2]; [8],1.45
Cc1nc2ccc(CN(C)c3ccc(C(=O)NC(CCC(=O)O)C(=O)O)s3)cc2c(=O)[nH]1 (stereo unspecified) (library stock concentration (final ~1000-fold dilution): 10 mM),NF-kB SEAP reporter activity,[1]; agonist: LPS (TLR4) 0.1 ug/mL,1.56
same,NF-kB SEAP reporter activity,[1]; [4],1.93
same,NF-kB SEAP reporter activity,[1]; [5],1.31
same,NF-kB SEAP reporter activity,[1]; [6],1.7
CCCCc1oc2ccccc2c1C(=O)c1cc(I)c(OCCN(CC)CC)c(I)c1.Cl,NF-kB SEAP reporter activity,[2]; [7],1.75
same,NF-kB SEAP reporter activity,[2]; [8],1.96
CCCCc1oc2ccccc2c1C(=O)c1cc(I)c(OCCN(CC)CC)c(I)c1.Cl (library stock concentration (final ~1000-fold dilution): 10 mM),NF-kB SEAP reporter activity,[1]; agonist: LPS (TLR4) 0.1 ug/mL,1.8
same,NF-kB SEAP reporter activity,[1]; [4],0.581
same,NF-kB SEAP reporter activity,[1]; [5],0.912
same,NF-kB SEAP reporter activity,[1]; [6],0.805
COC(=O)C12CCC(C)(C)CC1C1C(=O)C=C3C4(C)C=C(C#N)C(=O)C(C)(C)C4CCC3(C)C1(C)CC2 (stereo unspecified) (library stock concentration (final ~1000-fold dilution): 10 mM),NF-kB SEAP reporter activity,[3]; agonist: LPS (TLR4) 0.1 ug/mL,0.353 ± 0.078
same,NF-kB SEAP reporter activity,[3]; [4],0.184 ± 0.025
same,NF-kB SEAP reporter activity,[3]; [5],0.0738 ± 0.0054
same,NF-kB SEAP reporter activity,[3]; [6],0.139 ± 0.0028
COC(=O)C12CCC(C)(C)CC1C1C(=O)C=C3C4(C)C=C(C#N)C(=O)C(C)(C)C4CCC3(C)C1(C)CC2 (stereo unspecified),NF-kB SEAP reporter activity,[2]; [9],0.143 ± 0.0056
same,NF-kB SEAP reporter activity,[2]; [10],0.255 ± 0.0027
O=C(O)c1ccc2nc(-c3cc(Cl)cc(Cl)c3)oc2c1,NF-kB SEAP reporter activity,[2]; [7],0.977
same,NF-kB SEAP reporter activity,[2]; [8],1.18
O=C(O)c1ccc2nc(-c3cc(Cl)cc(Cl)c3)oc2c1 (library stock concentration (final ~1000-fold dilution): 10 mM),NF-kB SEAP reporter activity,[1]; agonist: LPS (TLR4) 0.1 ug/mL,1.26
same,NF-kB SEAP reporter activity,[1]; [4],1.05
same,NF-kB SEAP reporter activity,[1]; [5],0.972
same,NF-kB SEAP reporter activity,[1]; [6],1.13
CN(C)CCCC1(c2ccc(F)cc2)OCc2cc(C#N)ccc21.O=C(O)C(=O)O (stereo unspecified) (library stock concentration (final ~1000-fold dilution): 10 mM),NF-kB SEAP reporter activity,[1]; agonist: LPS (TLR4) 0.1 ug/mL,0.861
same,NF-kB SEAP reporter activity,[1]; [4],0.971
same,NF-kB SEAP reporter activity,[1]; [5],0.838
same,NF-kB SEAP reporter activity,[1]; [6],0.973
CN(C)CCCC1(c2ccc(F)cc2)OCc2cc(C#N)ccc21.O=C(O)C(=O)O (stereo unspecified),NF-kB SEAP reporter activity,[2]; [7],1.19
same,NF-kB SEAP reporter activity,[2]; [8],0.996
CNC(=O)c1cc(Oc2ccc(NC(=O)Nc3ccc(Cl)c(C(F)(F)F)c3)cc2)ccn1.Cc1ccc(S(=O)(=O)O)cc1 (library stock concentration (final ~1000-fold dilution): 10 mM),NF-kB SEAP reporter activity,[3]; agonist: LPS (TLR4) 0.1 ug/mL,0.415
same,NF-kB SEAP reporter activity,[3]; [4],0.808
same,NF-kB SEAP reporter activity,[3]; [5],0.164
same,NF-kB SEAP reporter activity,[3]; [6],0.324
CNC(=O)c1cc(Oc2ccc(NC(=O)Nc3ccc(Cl)c(C(F)(F)F)c3)cc2)ccn1.Cc1ccc(S(=O)(=O)O)cc1,NF-kB SEAP reporter activity,[2]; [9],1.3
same,NF-kB SEAP reporter activity,[2]; [10],1.16
O=C(O)CC(CC(=O)O)C(=O)O (library stock concentration (final ~1000-fold dilution): 10 mM),NF-kB SEAP reporter activity,[1]; agonist: LPS (TLR4) 0.1 ug/mL,1.45
same,NF-kB SEAP reporter activity,[1]; [4],0.973
same,NF-kB SEAP reporter activity,[1]; [5],0.946
same,NF-kB SEAP reporter activity,[1]; [6],1.49
O=C(O)CC(CC(=O)O)C(=O)O,NF-kB SEAP reporter activity,[2]; [7],0.972
same,NF-kB SEAP reporter activity,[2]; [8],1.04
Cc1ccc(-n2nc(C(C)(C)C)cc2NC(=O)NCc2cc(F)ccc2Oc2ccc3c(cnn3CCO)c2)cc1,NF-kB SEAP reporter activity,[2]; [7],0.188
same,NF-kB SEAP reporter activity,[2]; [8],0.318
Cc1ccc(-n2nc(C(C)(C)C)cc2NC(=O)NCc2cc(F)ccc2Oc2ccc3c(cnn3CCO)c2)cc1 (library stock concentration (final ~1000-fold dilution): 10 mM),NF-kB SEAP reporter activity,[1]; agonist: LPS (TLR4) 0.1 ug/mL,0.239
same,NF-kB SEAP reporter activity,[1]; [4],0.216
same,NF-kB SEAP reporter activity,[1]; [5],0.0703
same,NF-kB SEAP reporter activity,[1]; [6],0.125
